Measurements: the supplement of paper PMC9334596
“And” between values parts separate entries of the source, which are not always exact repeats. Equal entries are not always repeated. The full ranking holds about 5,300 compounds; the median of “PER2::LUC luminescence relative to vehicle control” is about 0.96, and the highest 2% start at about 1.3. This is one part of the list.

Test system: mPer2Luc MEF
Experiment: PER2::LUC luminescence relative to vehicle control (fold of vehicle); higher = higher PER2::LUC reporter signal
Conditions: 10 µM
Summary of the method: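 Mouse embryonic fibroblasts carrying the mPer2Luc reporter were seeded at ~3000 cells per well in 384-well plates, 48 h before compounds from commercial libraries were added at 10 μM. Cells were grown in DMEM with 10% FBS at 37 °C and 5% CO2. Luminescence was read with the ONE-Glo luciferase assay system 24 h and 30 h after treatment, followed by an alamarBlue viability assay. The value is PER2::LUC luminescence as fold of vehicle control.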

Compound	PER2::LUC luminescence (time after treatment 24 h)	PER2::LUC luminescence (time after treatment 30 h)
CNC(C)(C)Cc1ccccc1	1.05	0.849
CCOP(=S)(OCC)Oc1cc(C)nc(C(C)C)n1	0.901 and 0.93	1.01 and 0.921
OC(O)C(Cl)(Cl)Cl	0.989	1.14
C[C@]12CCC(=O)C(O)=C1CC[C@@H]1[C@@H]2CC[C@]2(C)C(=O)CC[C@@H]12	0.881	1.12
NNC(=O)c1nn(Cc2ccc(Cl)cc2Cl)c2ccccc12	0.998	1.02
c1ccc(CCCN2CCN(CCOC(c3ccccc3)c3ccccc3)CC2)cc1	0.768 and 0.672 and 0.629	0.772 and 0.631 and 0.562
CC(C)C[C@H]1C(=O)N2CCC[C@H]2[C@]2(O)O[C@](NC(=O)[C@@H]3C=C4c5cccc6[nH]c(Br)c(c56)C[C@H]4N(C)C3)(C(C)C)C(=O)N12	0.988 and 0.778	0.976 and 0.802
O=C(OC1CCN(CCCl)CC1)C(c1ccccc1)c1ccccc1	0.819	0.848
CCCC[C@@H](C)[C@@H](OC(=O)C[C@@H](CC(=O)O)C(=O)O)[C@H](C[C@@H](C)CCCCCC[C@@H](O)C[C@H](O)[C@H](C)N)OC(=O)C[C@@H](CC(=O)O)C(=O)O	1.01	0.952
C=CCN1CC[C@]23c4c5ccc(O)c4O[C@H]2/C(=N/N=C2\CC[C@@]4(O)[C@H]6Cc7ccc(O)c8c7[C@@]4(CCN6CC=C)[C@H]2O8)CC[C@@]3(O)[C@H]1C5	1	1.03
COc1cc(C(O)CN)ccc1O (racemic)	1.02	0.892
C[C@]12CCC(=O)C=C1CC[C@@H]1[C@@H]2CC[C@@]2(C)[C@H]1CC[C@]2(C)O	0.954 and 0.937	1.09 and 0.907
CN1[C@@H]2CC[C@H]1C[C@@H](OC(=O)C(CO)c1ccccc1)C2 (stereo partly specified)	0.917 and 0.97 and 0.833	1.03 and 0.929 and 0.942
CCOc1ccccc1-n1c(C(C)N2CCN(C(=O)COc3ccc(Cl)cc3)CC2)nc2ccccc2c1=O (stereo unspecified)	1.17	1.09
C[C@@H]1CC[C@H]2[C@H](C)[C@H]3CC[C@@]4(O)[C@@H]5CC(=O)[C@H]6CC(=O)CC[C@]6(C)[C@H]5C[C@H]4[C@@H]3CN2C1	0.961	1
CC(C)NCC(O)c1ccc(N)c(C#N)c1 (stereo unspecified)	1.07	0.977
C[C@H]1CC[C@@H]2N(C1)C[C@H]1[C@@H]3C[C@H]4[C@@H](CC(=O)[C@H]5C[C@@H](O)CC[C@@]54C)[C@@H]3CC[C@H]1[C@]2(C)O	0.88	0.989
CNCC(O)c1ccc(O)cc1 (stereo unspecified)	1 and 1.06 and 0.997	1.08 and 1.01 and 0.984
CCC1=C[C@H]2CN3CCc4c([nH]c5ccccc45)[C@](C(=O)OC)(C2)[C@H]13	1.01	0.824
CN[C@@H]1[C@@H](O)[C@@H](O[C@@H]2[C@@H](O)[C@H](O[C@H]3O[C@H]([C@@H](C)O)[C@@H](O)[C@H](O)[C@H]3N)[C@@H](N)C[C@H]2N)OC[C@]1(C)O	0.978	0.919
O=C(Cc1ccc(Cl)c(Cl)c1)N1CCCCC1CN1CCCC1 (stereo unspecified)	0.908	0.925
C#CCOC(=O)C1=CCCN(C)C1	0.873 and 0.859	1.08 and 1

Compound	PER2::LUC luminescence (time after treatment 24 h)	PER2::LUC luminescence (time after treatment 30 h)
Cc1sc2c(c1C)C(c1ccc(Cl)cc1)=N[C@@H](CC(=O)Nc1ccc(O)cc1)c1nnc(C)n1-2	0.095	0.129
CCc1c(C(=O)C(N)=O)c2c(OCC(=O)O)cccc2n1Cc1ccccc1	0.996 and 1.2	0.96 and 1.11
CC(=O)[C@H]1CC[C@H]2[C@@H]3CC[C@@H]4CC(=O)CC[C@]4(C)[C@H]3CC[C@]12C	0.782	0.786
O=c1c(O)c(-c2ccc(O)c(O)c2)oc2c(O)c(O)cc(O)c12	1.01	0.946
C=CC[N+]1(C)CC[C@]23c4c5ccc(O)c4O[C@H]2C(=O)CC[C@@]3(O)[C@H]1C5 (stereo partly specified)	1.08	1.05
CN1CCc2cc3c(cc2C1O)OCO3 (stereo unspecified)	1.04	1.1
CP(=O)(O)CCCN	1	0.948
C/C1=C/C(=O)O[C@@H]2C[C@@H](CC[C@H](C)/C=C\C=C\CC1)O[C@@](O)([C@@H]1CSC(=O)N1)C2	0.505	0.846
COc1ccc(C(=O)O)cc1OC	1.1	0.778
CC1(C)C2CC(=O)[C@]3(C)C(CC[C@@]4(C)[C@H](c5ccoc5)OC(=O)[C@H]5O[C@]543)[C@@]2(C)C(=O)C[C@H]1O (stereo partly specified)	1.03	1.03
COc1ccc2[nH]cc(C3=CCNCC3)c2c1	0.892 and 0.778	0.983 and 0.819
NP(N)(=O)NC(=O)c1ccc(F)cc1	0.919	0.843
CCCCC(C#N)(Cn1cncn1)c1ccc(Cl)cc1 (stereo unspecified)	1.03	1.08
CC(N)c1cccc(Cl)c1Cl (racemic)	1.01	0.901
O=C(O)[C@H]1[C@H]2CN[C@H](C(=O)O)[C@H]21	1.03	0.89
NCC(=O)c1ccccc1	1.21	1.22
Clc1cccc(SC2CCNCC2)n1	0.995	0.952
CCN(CC)CCOC(=O)C(O)(c1ccccc1)c1ccccc1	0.998	1.01
N[C@H](CCP(=O)(O)O)C(=O)O	1.01	1.02
C/C1=C/C[C@@H](/C(C)=C/c2csc(C)n2)OC(=O)C[C@H](O)C(C)(C)C(=O)[C@H](C)[C@@H](O)[C@@H](C)CCC1	0.484	0.443
CN(C)C(=O)Oc1cccc([N+](C)(C)C)c1	1.17	0.827
